Hit rate of the full screen: of about 46,000 compounds, about 60 (0.1%) were called active. Another 3% or so got no clear call; they are omitted. Calls follow the shape of the dose curve; as a rule, active = well fitted inhibition curve with a large enough effect; inconclusive = small, poorly fitted or top-dose-only effect; inactive = no such curve, though single readings can be large or run the other way. Some of the results follow.
Experiment: Primary qHTS assay for Inhibitors of ovarian cancer metastasis using an organotypic tumor microenvironment (TME) model. Also: nearly all actives have a fitted effect of over 65% in size.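 As to activity change, negative = inhibition: plate controls were DMSO wells for no effect and tomatine positive control wells for full effect.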
Conditions: SKOV3ip1-GFP adhesion/invasion on 3D omental model, fluorescence; series mostly up to 45.8 µM; activity change, negative = inhibition: at the top concentration
How it was run: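 A 3D layer of primary human omental fibroblasts, mesothelial cells, fibronectin and collagen I, grown 48 hr, received SKOV3ip1-GFP cells in serum-free medium plus compounds at 0.36-46 umol/L. After 2 hr RT and 16 hr 37 C, fixed adherent GFP cells were counted; normalized to DMSO and tomatine.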

Activity change, negative = inhibition, inactive:
COc1ccc(CCn2c(=O)c3cccnc3n(CC(=O)Nc3ccc(C)cc3C)c2=O)cc1OC -4.48%
Cc1nc(-c2ccc(S(=O)(=O)N(Cc3ccccc3)C(C)C)cc2)co1 -4.18%
O=C(Nc1cccc(C(=O)OCc2cc(=O)n3c4c(sc3n2)CCCC4)c1)c1cccc(Cl)c1 8.03%
O=C(CSc1nc2c([nH]c3ccccc32)c(=O)n1-c1ccc(F)cc1)NCc1ccc(F)cc1 17.8%
CC(NC(=O)C1CCN(S(=O)(=O)c2ccc3c(c2)oc(=O)n3C)CC1)c1ccccc1 (stereo not given) -7.38%
CCOC(=O)c1c(C)oc2ncnc(N3CCN(c4ccccc4)CC3)c12 -4.86%
Cc1ccc(C)c(N2CCN(c3nc4ccc(Cl)cc4n4cnnc34)CC2)c1 -15%
COc1cccc(-c2nc(SCc3ccc(C)cc3)n3[nH]c(=O)cc3n2)c1 4.78%
CC(C)(C)OC(=O)N1CCC(c2c(C(=O)N3CCC(c4ccccc4)C3)cnn2-c2ccc(Cl)cc2)CC1 (stereo not given) -0.999%
Cc1ccc(S(=O)(=O)NCCc2csc3nc(-c4ccccc4F)nn23)cc1C 1.32%
CN(C(=O)c1c2c(nc3ccccc13)C(=O)N(C1CCCCC1)C2)c1ccc(F)cc1 -5.41%
Cc1ccc(-c2cc3c(n2-c2ccc(F)cc2)CC(C)(C)CC3=O)cc1 4.08%
COc1ccccc1-c1nc(S(=O)(=O)c2ccccc2)c(N2CCC(C)CC2)o1 5.72%
Cc1ccccc1OCc1nnc(SCc2cc(=O)c3ccc(C)c(C)c3[nH]2)n1C -1.26%
COc1ccc(Nc2nc3ccccc3nc2NS(=O)(=O)c2ccc(Cl)cc2)cc1OC -20.9%
O=S(=O)(Nc1cccc(F)c1)c1ccc2[nH]c3c(c2c1)CCCCC3 -16.3%
CC(=O)Nc1ccc(NC(=O)c2cnn(-c3ccccc3)c2C2CCN(C(=O)OC(C)(C)C)CC2)cc1 7.38%
CCC(C(=O)NCc1cccc(Br)c1)n1nc(C)c2c(C)n(-c3ccccc3)nc2c1=O (stereo not given) -0.872%

outcome, inactive:
Cn1cnc2c(=O)oc3ccc(S(=O)(=O)N4CCN(c5ccccc5F)CC4)cc3c21
Cc1ccc(Cl)cc1NC(=O)C1CCN(C(=O)c2cnn(-c3ccccc3)c2-n2cccc2)CC1
CC(C)OCCCNC(=O)CCCn1c(SCC(N)=O)nc2c(sc3ccccc32)c1=O
CCOc1ccc(CCNC(=O)c2ccc3c(c2)nc2n3CCOC2)cc1OCC
O=[N+]([O-])c1ccc(S(=O)(=O)N2CCn3cccc3C2c2ccccc2F)cc1 (stereo not given)
COC(=O)c1c(SCC(=O)Nc2cccc(Cl)c2C)[nH]c2ccccc2c1=O
COc1ccccc1CCNC(=O)C(=O)NCC(c1ccco1)S(=O)(=O)c1ccccc1 (stereo not given)

From PubChem BioAssay AID1963576 (National Center for Advancing Translational Sciences (NCATS), 2024)
